Measured values from PubChem BioAssay (NCATS).
The shares of active, inactive and inconclusive entries below differ from those in the screen. A potency beside an inconclusive call is a rough fit, not a confirmed value. The source made the active and inactive calls. Calls come from the whole dose curve; as a rule, active = well fitted inhibition curve with a large enough effect; inconclusive = small, poorly fitted or top-dose-only effect, or another doubt; inactive = no such curve, though single readings can be large or run the other way.

What follows are compounds tested against DNA polymerase kappa (Homo sapiens) (UniProt Q9UBT6) (assay: qHTS for Inhibitors of Polymerase Kappa: Confirmatory Assay for Cherry-picked Compounds (AID 720501)). Conditions: purified Pol-kappa, fluorescent strand-displacement substrate.
Chain of UniProt Q9UBT6 (Q9UBT6 whole entry, looked up): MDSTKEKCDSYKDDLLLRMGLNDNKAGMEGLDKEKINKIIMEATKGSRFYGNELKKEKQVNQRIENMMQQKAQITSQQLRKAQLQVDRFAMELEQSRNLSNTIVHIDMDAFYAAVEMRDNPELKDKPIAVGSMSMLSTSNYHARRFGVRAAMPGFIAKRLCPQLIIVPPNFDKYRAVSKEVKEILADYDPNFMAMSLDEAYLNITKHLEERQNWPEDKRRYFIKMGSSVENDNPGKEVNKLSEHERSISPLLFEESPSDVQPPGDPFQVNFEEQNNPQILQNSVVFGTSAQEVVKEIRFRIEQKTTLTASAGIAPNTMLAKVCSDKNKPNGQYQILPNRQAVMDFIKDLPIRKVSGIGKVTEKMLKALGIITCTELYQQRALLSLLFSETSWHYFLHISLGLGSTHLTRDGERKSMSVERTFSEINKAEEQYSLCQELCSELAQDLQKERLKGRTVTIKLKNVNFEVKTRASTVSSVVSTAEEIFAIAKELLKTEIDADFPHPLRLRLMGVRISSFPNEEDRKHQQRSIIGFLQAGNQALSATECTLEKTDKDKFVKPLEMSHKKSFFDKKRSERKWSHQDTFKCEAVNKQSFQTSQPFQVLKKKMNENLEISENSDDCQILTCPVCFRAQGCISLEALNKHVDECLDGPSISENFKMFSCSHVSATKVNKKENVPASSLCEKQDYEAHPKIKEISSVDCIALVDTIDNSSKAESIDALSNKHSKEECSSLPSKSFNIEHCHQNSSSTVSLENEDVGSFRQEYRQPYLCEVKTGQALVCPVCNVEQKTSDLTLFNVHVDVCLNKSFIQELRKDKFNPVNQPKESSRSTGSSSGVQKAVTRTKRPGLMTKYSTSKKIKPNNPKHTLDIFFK
Excerpt: The processing and repair of DNA inter-strand crosslinks (ICL) in eukaryotic cells are extremely complex, potentially involving multiple DNA repair and damage tolerance pathways, including homologous recombination, nucleotide excision repair, translesion synthesis (TLS), and cell cycle checkpoints. […] A 1536-well format, fluorescence based, high-throughput screen (AID 588579) was developed in collaboration with the Oregon Health & Science University to screen for inhibitors of the Pol-kappa enzyme. This assay was used to validate the activity of the selected compounds from the primary screen against the human Pol-kappa. Inhibition is the desired outcome for this assay. NIH Chemical Genomics Center [NCGC] NIH Molecular Libraries Probe Centers Network [MLPCN] MLPCN Grant: MH094179 Assay Submitter (PI): Stephen Lloyd, Oregon Health & Science University
Three microliters of reagents (buffer in column 3 and 4 as negative control and 10 nM Pol-kappa in columns 1, 2, and 5-48) were dispensed into a 1536-well black solid-bottom plate. Compounds (23 nL) were transferred via Kalypsys pin tool equipped with 1536-pin array. The plates were then incubated for 15 min at room temperature, and 1 uL of substrate was added to start the reaction for a final concentration of 50 nM. The substrate was made by the annealing of unlabeled oligodeoxynucleotide primer (59-[…]-39) and TAMRA-labeled reporter strand (59-[…]-6-TAMRA-39) to oligodeoxynucleotide template labeled with BHQ-2 (59-BHQ-2-[…]-39) described in detail at the Yamanaka et.al. (PLOS, 2012) reference paper. The assay plates were initially read after 0 min and again after 10 min of kinetic reaction using the PerkinElmer Viewlux reader equipped with 525 nm excitation and 598 nm emission filters.
Potency is the fitted concentration of half-maximal effect; tags give direction and shape of the fitted curve.

Potency, active:
NN=C1c2ccccc2C(=O)C1C(=O)C(c1ccccc1)c1ccccc1 (stereo not drawn) 16.8 µM
O=c1ccc2c(-c3ccccc3)c3ccc(O)cc3oc-2c1 2.99 µM
O=c1ccc2[n+]([O-])c3ccc(O)cc3oc-2c1 23.8 µM
Cc1nnc(NC(=O)CCSCCC(=O)Nc2nnc(C)s2)s1 21.2 µM
O=c1cc2c(=O)oc3cc(O)c(O)oc3c2c(O)c1O 0.947 µM
O=C(O)C(c1ccccc1)N1C(=O)/C(=C\c2ccc(-c3ccccc3Cl)o2)SC1=S (stereo not drawn) 10.6 µM

Potency, inconclusive:
O=C(O)CNC(=O)CC1S/C(=N/N=C2/NC(=O)CS2)NC1=O (stereo not drawn) 42.3 µM [inhibitor, partial curve, poor fit]
[O-][n+]1c2ccccc2[n+]([O-])c2cc(O)ccc21 33.6 µM [inhibitor, partial curve]
O=C(Cn1c(=O)n(Cc2ccc(C(=O)NCc3ccc4c(c3)OCO4)cc2)c(=O)c2ccccc21)Nc1ccc(F)cc1F 75.2 µM [inhibitor, partial curve]
COc1cc(/C=C2\C(=N)N3N=C(S(C)(=O)=O)SC3=NC2=O)cc(OC)c1OCCOc1ccccc1C 75.2 µM [inhibitor, partial curve]
O=C(O)CCCCCN1C(=O)/C(=C/c2cn(-c3ccccc3)nc2-c2cccs2)SC1=S 53.2 µM [inhibitor, partial curve]
COCCCNc1c2c3c(cccc3[nH]c1=O)C(=O)c1ccccc1-2 59.7 µM [inhibitor, partial curve, poor fit]
COc1cc(/C=C2\SC(=S)N(NS(=O)(=O)c3ccc(C)cc3)C2=O)ccc1O 67 µM [inhibitor, partial curve, poor fit]
Cc1cc(N)n(-c2ccc(Oc3ccccc3)c(S(=O)(=O)O)c2)n1 84.4 µM [inhibitor, partial curve]
O=C(CSc1nc(-c2ccccc2)nc2ccc(F)cc12)Nc1cccc(C(=O)O)c1 84.4 µM [inhibitor, single point]
O=C(O)CCCNc1cc(N2CCN(C(=O)c3ccco3)CC2)c2noc3c2c1C(=O)c1ccccc1-3 2.67 µM [inhibitor, full curve, poor fit]
CCCCN(C)C1=CC2=CC(=C(C#N)C#N)CCC2CC1 (stereo not drawn) 84.4 µM [inhibitor, single point]
COC(=O)c1sc(-c2ccc(C(C)(C)C)cc2)cc1NC(=O)c1ccccc1C(=O)O 94.7 µM [inhibitor, single point]
CN(C)c1ccc2nc3c(=O)[nH]c(=O)nc-3n(CC(O)C(O)C(O)CO)c2c1 (stereo not drawn) 42.3 µM [inhibitor, partial curve, poor fit]
CCSC1=NSC2=NC(=O)/C(=C\c3coc4ccccc4c3=O)C(=N)N12 84.4 µM [inhibitor, partial curve]
C=CCOc1ccc(C(c2c(C(=O)O)[nH]c3ccccc23)c2c(C(=O)O)[nH]c3ccccc23)cc1 18.9 µM [inhibitor, full curve, poor fit]
COc1ccc2c(c1)c(=O)oc1cc(OCC(=O)NC3CCCCC3)ccc12 67 µM [inhibitor, partial curve]
O=C(O)c1cc(-c2ccc(-c3c(-c4ccc5c(c4)OCO5)noc3-c3ccsc3)cc2)nc2ccccc12 84.4 µM [inhibitor, single point]
COc1cc(/C=C(\C#N)c2nc3ccc(C)cc3[nH]2)ccc1OCc1ccc(C)cc1 94.7 µM [inhibitor, partial curve, poor fit]
O=C(C1Cc2ccccc2CN1C(=O)c1ccccc1)N1CCN(c2ccccc2)CC1 (stereo not drawn) 84.4 µM [inhibitor, partial curve]
Cn1c(-n2cccc2)c(-c2c(-c3ccccc3)[nH]c3c2c(=O)[nH]c(=O)n3C)c(=O)[nH]c1=O 67 µM [inhibitor, partial curve]
CCc1ccccc1Nc1nn2c(=O)c3ccc(C(=O)NCc4cccs4)cc3nc2s1 42.3 µM [inhibitor, partial curve]
COc1ccccc1/C=C1\SC(=S)N(CCC(=O)Nc2ccc(C(=O)O)c(O)c2)C1=O 94.7 µM [inhibitor, single point]
